Among all 270,000 compounds or so, about 5,800 (2.1%) were called active. The shares of active, inactive and inconclusive entries below differ from those in the screen. The call rests on the fitted dose curve; in most records, active means well fitted inhibition curve with a large enough effect; inconclusive means small, poorly fitted or top-dose-only effect; inactive means flat fitted curve, though single readings scatter. Potencies of inconclusive entries are doubtful fits and often do not repeat.
Molecular target: Microtubule-associated protein tau (Homo sapiens) (UniProt P10636)
Experiment: qHTS for Inhibitors of Tau Fibril Formation, Thioflavin T Binding; further: nearly all actives have a fitted effect of over 55% in size
Settings: recombinant tau K18 P301L (four-repeat tau fragment), heparin-induced fibrillization, ThT fluorescence; series mostly up to 57.4 µM; activity, negative = inhibition: at the top concentration
Outline: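 Aggregation was driven by heparin (20 uM final) acting on recombinant tau […] bearing P301L in 100 mM sodium acetate pH 7; fibrils were detected with Thioflavin T.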
On the % scale 0 is the no-effect control and ±100 the full control effect; potency means the concentration at half of the fitted maximal effect; tags describe the fitted curve by direction and shape.

Chain of UniProt P10636 (P10636 whole entry, looked up): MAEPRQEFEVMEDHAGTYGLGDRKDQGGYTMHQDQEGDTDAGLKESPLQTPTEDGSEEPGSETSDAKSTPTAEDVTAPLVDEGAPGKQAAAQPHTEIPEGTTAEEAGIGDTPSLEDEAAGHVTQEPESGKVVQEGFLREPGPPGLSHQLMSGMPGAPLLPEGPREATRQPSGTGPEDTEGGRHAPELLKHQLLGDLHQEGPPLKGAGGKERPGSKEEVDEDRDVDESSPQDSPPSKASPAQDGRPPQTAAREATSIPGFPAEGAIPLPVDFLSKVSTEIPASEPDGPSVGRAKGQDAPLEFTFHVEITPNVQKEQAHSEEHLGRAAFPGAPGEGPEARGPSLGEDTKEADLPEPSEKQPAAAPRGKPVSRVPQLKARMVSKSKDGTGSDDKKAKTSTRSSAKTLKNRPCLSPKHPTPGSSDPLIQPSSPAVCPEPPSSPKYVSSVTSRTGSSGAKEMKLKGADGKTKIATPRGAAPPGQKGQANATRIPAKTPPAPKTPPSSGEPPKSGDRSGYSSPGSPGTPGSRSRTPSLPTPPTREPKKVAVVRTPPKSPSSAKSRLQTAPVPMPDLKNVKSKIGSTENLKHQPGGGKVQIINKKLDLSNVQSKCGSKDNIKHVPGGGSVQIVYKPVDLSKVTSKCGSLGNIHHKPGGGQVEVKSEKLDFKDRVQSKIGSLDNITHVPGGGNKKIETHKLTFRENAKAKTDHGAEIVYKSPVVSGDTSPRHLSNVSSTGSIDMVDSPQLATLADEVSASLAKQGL

Compound | Potency | activity, negative = inhibition
CC(C)(C)c1ccc(S(=O)(=O)NC(Cc2ccccc2)C(=O)O)cc1 (stereo not given) | inconclusive: 39.8 µM [inhibitor, single point] | 
O=C1/C(=C/c2cccnc2)CCC/C1=C\c1cccnc1 | active: 6.31 µM | 
CCn1c2ccccc2c2cc(NC(=O)C(C)Oc3ccccc3)ccc21 (stereo not given) | inconclusive: 15.8 µM [inhibitor, partial curve] | 
O=C(CSCc1nc2ccccc2[nH]1)N1CCN(c2ccc(F)cc2)CC1 | inconclusive: 31.6 µM [inhibitor, single point] | 
COc1cccc(/C=N/NC(=O)c2ccc(=O)n(C)c2)c1O |  | inactive: -13.5%
Cc1cc2cc(CCNS(C)(=O)=O)c(=O)[nH]c2cc1C | inconclusive: 10 µM [inhibitor, partial curve] | 
S=c1[nH]nc(-c2ccc(Cl)cc2)n1Cc1ccccc1 | inconclusive: 22.4 µM [inhibitor, partial curve] | 
C=CCSC1=C(C#N)C(c2ccccc2)CC(=O)N1 (stereo not given) |  | inactive: -5.96%
COc1ccccc1CNC(=O)C1CC(c2ccc([N+](=O)[O-])cc2)=NO1 (stereo not given) | inconclusive: 3.55 µM [inhibitor, full curve] | 
Cc1cccc(C)c1Nc1c(-c2cccs2)nc2ncccn12 | inconclusive: 5.01 µM [inhibitor, partial curve] | 
Cc1cc(=O)[nH]c(N/N=C/c2cc(C)n(-c3ccccc3)c2C)n1 | inconclusive: 22.4 µM [inhibitor, single point] | 
CCCCCCCCCCC[C@@H](C[C@@H]1OC(=O)[C@H]1CCCCCC)OC(=O)[C@H](CC(C)C)NC=O | inconclusive: 22.4 µM [inhibitor, single point] | 
CCc1c(C)c(C#N)c2nc3ccccc3n2c1Cl | inconclusive: 6.31 µM [inhibitor, partial curve] | 
CN1CSC2=C(C#N)C(c3cccc(OCc4ccccc4)c3)CC(=O)N2C1 (stereo not given) | inconclusive: 28.2 µM [inhibitor, partial curve] | 
CCOC(=O)c1[nH]c2cc(OC)c(OC)cc2c1NC(=O)CN1CCN(c2ccc(OC)cc2)C(C)C1 (stereo not given) | inconclusive: 14.1 µM [inhibitor, partial curve] | 
CCNS(=O)(=O)c1ccc(NC(=S)NCC2CCCO2)cc1 (stereo not given) |  | inactive: 11.3%
CC(C)NC(=S)N/N=C1\CCCCC1C1CCCCC1 (stereo not given) | inconclusive: 35.5 µM [inhibitor, partial curve] | 
CCOC(=O)c1ccc(-n2c(C)nc3c(cnn3-c3ccccc3C)c2=O)cc1 | inconclusive: 20 µM [inhibitor, single point] | 
CCOC(=O)c1sc(C)c2c1NC(c1ccc(N(C)C)cc1)NC2=O (stereo not given) |  | inactive: -12.7%
Cc1ccc(OCc2nnc(SCC(=O)c3cccc([N+](=O)[O-])c3)n2C)cc1 | inconclusive: 7.08 µM [inhibitor, partial curve] | 
CC(C)C(=O)N1CCN(CCN=CC2=C(O)CC(c3ccco3)CC2=O)CC1 (stereo not given) | inconclusive: 15.8 µM [inhibitor, single point] | 
COc1ccc(-n2ccnc2)cc1 |  | inactive: -3.14%
CC(=C/c1ccco1)/C=N/NC(=O)c1ccncc1 | inconclusive: 10 µM [inhibitor, partial curve] | 

Compound | Potency | activity, negative = inhibition
FC(F)(F)c1ccccc1NC(=S)Nc1cccc2cnccc12 | active: 22.4 µM | 
O=C(O)COc1ccccc1/C=N/NC(=O)c1cc2ccccc2cc1O | inconclusive: 28.2 µM [inhibitor, partial curve, poor fit] | 
CCCOC(=O)c1ccc(NC(=O)c2cnccn2)cc1 | inconclusive: 17.8 µM [inhibitor, partial curve] | 
COc1ccccc1/C=C(/C(=O)OCC(=O)NCc1ccccc1)c1ccccc1 | inconclusive: 39.8 µM [inhibitor, single point] | 
CCOC(=O)C1C(=O)C=C(c2ccc(C)cc2)CC1c1ccccc1 (stereo not given) |  | inactive: -17.4%
Cc1[nH]n(-c2ccccc2)c(=O)c1/C=N/N1C(=O)c2cccc3cccc(c23)C1=O | active: 22.4 µM | 
CCOc1ccc(C2C3=C(Nc4nc(N)[nH]c(=O)c42)c2ccccc2C3=O)cc1 (stereo not given) | inconclusive: 2.82 µM [inhibitor, full curve] | 
O=C1CCCC(=O)C1=Cc1c[nH]c2ccccc12 | inconclusive: 22.4 µM [inhibitor, partial curve] | 
CCN(CC)C(=O)COc1ccc2oc(-c3ccco3)cc(=O)c2c1 | inconclusive: 15.8 µM [inhibitor, single point] | 
Cc1ccc(/C=C2\NC(=S)NC2=O)cc1[N+](=O)[O-] | inconclusive: 5.01 µM [inhibitor, partial curve] | 
CCOc1ccc(NC(=O)Nc2ccccc2SC)cc1 | inconclusive: 25.1 µM [inhibitor, single point] | 
O=C(N/N=C/c1ccc(N2CCOCC2)cc1)c1ccccn1 | active: 14.1 µM | 
COc1cc(/C=C2\CC/C(=C\c3ccc(OCCO)c(OC)c3)C2=O)ccc1OCCO | active: 14.1 µM | 
C[n+]1cccc2cccc([O-])c21 | active: 15.8 µM | 
CCCc1cc(=O)[nH]c(SCc2nc(-c3ccc(C)cc3)no2)n1 |  | inactive: 3.96%
CCSC1=C(C#N)C(c2ccc(C)o2)CC(=O)N1 (stereo not given) |  | inactive: -3.25%
COc1ccc(CCNC(=O)c2ccc(-n3c(C)cc4c3CCCC4)cc2)cc1OC | inconclusive: 25.1 µM [inhibitor, partial curve] | 
COc1ccccc1CCNC(=O)Cc1c(C)c2cc3c(C(C)(C)C)coc3c(C)c2oc1=O |  | inactive: -1.8%
CCCn1c(CN2CCN(C(=O)OCC)CC2)nc2c1c(=O)n(C)c(=O)n2C |  | inactive: 2.28%
CCc1nnc(NS(=O)(=O)c2ccc(NC(=S)NC(=O)c3ccc(OC)c(OC)c3)cc2)s1 |  | inactive: -2.72%
COC(=O)[C@@H]1CC[C@H](C)[C@@H](c2ccc(C)cc2)N1C(=O)c1ccc(/C=N/OCC[C@@H]2C=C[C@H](OC(C)=O)[C@@H](COC(C)=O)O2)cc1 | inconclusive: 5.01 µM [inhibitor, full curve] | 
Cc1ccc(S(=O)(=O)CCC(=O)N2CCN(c3ccc(Cl)cc3)CC2)cc1 | inconclusive: 5.01 µM [inhibitor, full curve] | 

Source: PubChem BioAssay AID1460 (National Center for Advancing Translational Sciences (NCATS), 2008)
